Sequences and labels used below:
B1: Caulobacter ParB omega fusion; a variant is named by its letters at X, in order, B8GW30 (parent)
chain: MESVVVGEPGMSEGRRGLGRGLSALLGEVDAAPAQAPGEQLGGSREAPIEILQRNPDQPRRTFREEDLEDLSNSIREKGVLQPILVRPSPDTAGEYQIVAGERAWRAAQRAGLKTVPIMVRELDDLAVLEIGIIENVQRADLNVLEEALSYKVLMEKFERTQENIAQTIGKSXSHVANXMRLLXLPDEVQSYLVSGELTAXHARAIAAAADPVALAKQIIEGGLSVRETEALARKAPNLSAGKSKGGRPPRVKDTDTQALESDLSSVLGLDVSIDHRGSTGTLTITYATLEQLDDLCNRLTRGI

Whole data set: some 81,000 sequences, median “one-hybrid fitness for binding NBS DNA” near -0.1, cut for the highest 2% near 0.36. The list shows a part of the results.

Variants of B1 are the subject of the experiment. Put plainly: one-hybrid fitness for binding NBS DNA (the Noc-binding site; scaled: cognate 1, non-cognate 0); higher = stronger binding. The settings on record: with NBS DNA site. Put shortly:
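Pre- and post-selection plasmids were Illumina-sequenced, three replicate libraries were pooled, and any variant with under 10 reads was removed. The libraries were Caulobacter ParB with four specificity codons randomised, selected in E. coli USO through a HIS3 reporter whose site is 19 bp from the promoter. Cells grew 48 hours at 37°C on M9 without histidine, with 0.1 mM IPTG and 5 mM 3-AT. Fitness is the log change in variant-to-wild-type read ratio, rescaled against cognate and non-cognate.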
As to MSPR, the “one-hybrid fitness for binding NBS DNA” value is at most 0.2. For AEGE the value was at most 0.2; for FAQR, at most 0.2. DKWF: the “one-hybrid fitness for binding NBS DNA” value is at most 0.2. On to VRSC, for which the “one-hybrid fitness for binding NBS DNA” value is at most 0.2. For the variant MIPQ, the “one-hybrid fitness for binding NBS DNA” value was at most 0.2. Turning to MGCA, the “one-hybrid fitness for binding NBS DNA” value is at most 0.2.

With MTSY, the “one-hybrid fitness for binding NBS DNA” value was at most 0.2. On to GCML, for which the “one-hybrid fitness for binding NBS DNA” value is at most 0.2. As for HHES, the “one-hybrid fitness for binding NBS DNA” value is at most 0.2. For FSPD, the “one-hybrid fitness for binding NBS DNA” value was at most 0.2. With QHKS, the “one-hybrid fitness for binding NBS DNA” value was 0.655.

On to AEIS, for which the “one-hybrid fitness for binding NBS DNA” value is at most 0.2.

Regarding KNDC, the “one-hybrid fitness for binding NBS DNA” value is at most 0.2. SIQY: the “one-hybrid fitness for binding NBS DNA” value is at most 0.2. As for IGYG, the figure is at most 0.2; as for RWPV, at most 0.2; as for RDGD, at most 0.2.

As for DHQL, the “one-hybrid fitness for binding NBS DNA” value was at most 0.2. With HLSL, the “one-hybrid fitness for binding NBS DNA” value is at most 0.2.

RFGP: the “one-hybrid fitness for binding NBS DNA” value is at most 0.2.

In the case of CYRG, the “one-hybrid fitness for binding NBS DNA” value was at most 0.2. In the case of SADM, the “one-hybrid fitness for binding NBS DNA” value is at most 0.2. On to ANET, for which the “one-hybrid fitness for binding NBS DNA” value is at most 0.2. With PTRS, the “one-hybrid fitness for binding NBS DNA” value is at most 0.2. TSAL: the “one-hybrid fitness for binding NBS DNA” value is at most 0.2. Turning to RIRR, the “one-hybrid fitness for binding NBS DNA” value came out at 0.638. Turning to LVEY, the “one-hybrid fitness for binding NBS DNA” value was at most 0.2. Consider MYQK, for which the “one-hybrid fitness for binding NBS DNA” value was at most 0.2. As for IWTE, the figure is at most 0.2. As for YFKS, the figure is at most 0.2; as for QSEQ, at most 0.2; as for YRSK, at most 0.2. Turning to RAFY, the “one-hybrid fitness for binding NBS DNA” value was at most 0.2. For the variant LEER, the “one-hybrid fitness for binding NBS DNA” value is at most 0.2. FKPC: the “one-hybrid fitness for binding NBS DNA” value is at most 0.2.

QLER: the “one-hybrid fitness for binding NBS DNA” value stood at 0.266.

For NFSR, the “one-hybrid fitness for binding NBS DNA” value was at most 0.2. For FTTC the value was at most 0.2; for HCMH, at most 0.2; for MDIS, at most 0.2. As to RMEL, the “one-hybrid fitness for binding NBS DNA” value was at most 0.2. Consider VRPL, for which the “one-hybrid fitness for binding NBS DNA” value is at most 0.2.

PDMR: the “one-hybrid fitness for binding NBS DNA” value was at most 0.2.

On to RPSL, for which the “one-hybrid fitness for binding NBS DNA” value was at most 0.2. Turning to DGCI, the “one-hybrid fitness for binding NBS DNA” value is at most 0.2. Turning to IPSG, the “one-hybrid fitness for binding NBS DNA” value is at most 0.2. As for MIQE, the “one-hybrid fitness for binding NBS DNA” value is at most 0.2. For RTCR, the “one-hybrid fitness for binding NBS DNA” value is 0.53. On to QANF, for which the “one-hybrid fitness for binding NBS DNA” value is at most 0.2.

For the variant ENWL, the “one-hybrid fitness for binding NBS DNA” value was at most 0.2. In the case of PQSR, the “one-hybrid fitness for binding NBS DNA” value was at most 0.2. As to WKKW, the “one-hybrid fitness for binding NBS DNA” value was at most 0.2. Take SGKR: the “one-hybrid fitness for binding NBS DNA” value is at most 0.2. Turning to ECKS, the “one-hybrid fitness for binding NBS DNA” value is at most 0.2. For WRNG the value was at most 0.2; for QHAM, at most 0.2. As for APQP, the “one-hybrid fitness for binding NBS DNA” value was at most 0.2.

As to MCVC, the “one-hybrid fitness for binding NBS DNA” value is at most 0.2. For ADVG the value was at most 0.2; for PQES, at most 0.2.

For DCEC, the “one-hybrid fitness for binding NBS DNA” value is at most 0.2. In the case of LPFT, the “one-hybrid fitness for binding NBS DNA” value is at most 0.2. For DVTC the value was at most 0.2; for KGSH, at most 0.2. For ADRV the value was at most 0.2. As for INGN, the “one-hybrid fitness for binding NBS DNA” value was at most 0.2. Turning to MQAV, the “one-hybrid fitness for binding NBS DNA” value is at most 0.2.

With AFPS, the “one-hybrid fitness for binding NBS DNA” value is at most 0.2. Regarding RGEY, the “one-hybrid fitness for binding NBS DNA” value was at most 0.2. On to KYIR, for which the “one-hybrid fitness for binding NBS DNA” value is at most 0.2. For the variant AAKP, the “one-hybrid fitness for binding NBS DNA” value was at most 0.2. On to SRRY, for which the “one-hybrid fitness for binding NBS DNA” value is at most 0.2.

On to FLVC, for which the “one-hybrid fitness for binding NBS DNA” value is at most 0.2.

Take EGWG: the “one-hybrid fitness for binding NBS DNA” value was at most 0.2.

On to EPLT, for which the “one-hybrid fitness for binding NBS DNA” value is at most 0.2. For the variant LPHN, the “one-hybrid fitness for binding NBS DNA” value was at most 0.2. As for HWHC, the figure is at most 0.2; as for RYFI, at most 0.2; as for VTWY, at most 0.2. As to APRD, the “one-hybrid fitness for binding NBS DNA” value is at most 0.2.

Consider FYGS, for which the “one-hybrid fitness for binding NBS DNA” value is at most 0.2. With PNAR, the “one-hybrid fitness for binding NBS DNA” value was at most 0.2.

As to LSKL, the “one-hybrid fitness for binding NBS DNA” value was at most 0.2. As to KRWM, the “one-hybrid fitness for binding NBS DNA” value was at most 0.2. As to QPPY, the “one-hybrid fitness for binding NBS DNA” value is at most 0.2.

For LYWG, the “one-hybrid fitness for binding NBS DNA” value is at most 0.2.

With FTQE, the “one-hybrid fitness for binding NBS DNA” value was at most 0.2.

For the variant PPGA, the “one-hybrid fitness for binding NBS DNA” value was at most 0.2.

On to NYTT, for which the “one-hybrid fitness for binding NBS DNA” value is at most 0.2.

For LLSM, the “one-hybrid fitness for binding NBS DNA” value was at most 0.2.

In the case of QMKS, the “one-hybrid fitness for binding NBS DNA” value stood at 0.668. Take QRPW: the “one-hybrid fitness for binding NBS DNA” value is at most 0.2. As for HRYS, the figure is at most 0.2. For SAGK the value was at most 0.2. Turning to PIEV, the “one-hybrid fitness for binding NBS DNA” value is at most 0.2. For the variant RGQL, the “one-hybrid fitness for binding NBS DNA” value is at most 0.2.

In the case of NYPM, the “one-hybrid fitness for binding NBS DNA” value was at most 0.2. For RWPW the value was at most 0.2. With STHN, the “one-hybrid fitness for binding NBS DNA” value is at most 0.2. Turning to WTND, the “one-hybrid fitness for binding NBS DNA” value was at most 0.2.

As to RHHD, the “one-hybrid fitness for binding NBS DNA” value was at most 0.2. As to QDAC, the “one-hybrid fitness for binding NBS DNA” value was at most 0.2. On to DPHS, for which the “one-hybrid fitness for binding NBS DNA” value was at most 0.2. For RRKP the value was 0.379; for PMLT, at most 0.2; for SFQV, 0.447. As to KMGK, the “one-hybrid fitness for binding NBS DNA” value was at most 0.2.

Regarding CQHC, the “one-hybrid fitness for binding NBS DNA” value is at most 0.2. Regarding LGGT, the “one-hybrid fitness for binding NBS DNA” value is at most 0.2. For RQDV the value was at most 0.2. In the case of SYTF, the “one-hybrid fitness for binding NBS DNA” value was at most 0.2.

CLTS: the “one-hybrid fitness for binding NBS DNA” value is at most 0.2. As for AMRV, the “one-hybrid fitness for binding NBS DNA” value was at most 0.2. AIYA: the “one-hybrid fitness for binding NBS DNA” value was at most 0.2. As to DRYT, the “one-hybrid fitness for binding NBS DNA” value is at most 0.2. In the case of PHGA, the “one-hybrid fitness for binding NBS DNA” value is at most 0.2. For the variant TETA, the “one-hybrid fitness for binding NBS DNA” value is at most 0.2. As for PLNP, the “one-hybrid fitness for binding NBS DNA” value is at most 0.2. As to CTCG, the “one-hybrid fitness for binding NBS DNA” value was at most 0.2.

Take EMFL: the “one-hybrid fitness for binding NBS DNA” value is at most 0.2.

Consider LKNR, for which the “one-hybrid fitness for binding NBS DNA” value is at most 0.2. Regarding RSDV, the “one-hybrid fitness for binding NBS DNA” value is at most 0.2. Consider WKRT, for which the “one-hybrid fitness for binding NBS DNA” value is at most 0.2. QQDT: the “one-hybrid fitness for binding NBS DNA” value amounted to 0.428. Consider AARM, for which the “one-hybrid fitness for binding NBS DNA” value was at most 0.2. Take GLRI: the “one-hybrid fitness for binding NBS DNA” value was at most 0.2. As to DPAI, the “one-hybrid fitness for binding NBS DNA” value was at most 0.2. In the case of QRTP, the “one-hybrid fitness for binding NBS DNA” value is 0.263. As to YLVF, the “one-hybrid fitness for binding NBS DNA” value is at most 0.2. On to MVLS, for which the “one-hybrid fitness for binding NBS DNA” value is at most 0.2. For the variant VDFE, the “one-hybrid fitness for binding NBS DNA” value was at most 0.2. For the variant ELCR, the “one-hybrid fitness for binding NBS DNA” value was at most 0.2.

With QHAV, the “one-hybrid fitness for binding NBS DNA” value is at most 0.2.

Consider VEPR, for which the “one-hybrid fitness for binding NBS DNA” value was at most 0.2. For the variant SYSE, the “one-hybrid fitness for binding NBS DNA” value was at most 0.2.

As for EMEG, the “one-hybrid fitness for binding NBS DNA” value is at most 0.2.

For the variant YINR, the “one-hybrid fitness for binding NBS DNA” value is at most 0.2. On to GAHY, for which the “one-hybrid fitness for binding NBS DNA” value is at most 0.2.

Turning to DVIF, the “one-hybrid fitness for binding NBS DNA” value was at most 0.2. Consider HVLN, for which the “one-hybrid fitness for binding NBS DNA” value is at most 0.2. Turning to YKQC, the “one-hybrid fitness for binding NBS DNA” value was at most 0.2. As for APLN, the “one-hybrid fitness for binding NBS DNA” value was at most 0.2. In the case of NLRN, the “one-hybrid fitness for binding NBS DNA” value was at most 0.2. For INLS the value was at most 0.2. In the case of RLEI, the “one-hybrid fitness for binding NBS DNA” value is at most 0.2.

DTEL: the “one-hybrid fitness for binding NBS DNA” value is at most 0.2. For LGQM the value was at most 0.2; for MTCG, at most 0.2.

In the case of YAFG, the “one-hybrid fitness for binding NBS DNA” value is at most 0.2.

Regarding ACWS, the “one-hybrid fitness for binding NBS DNA” value is at most 0.2. Consider TRYR, for which the “one-hybrid fitness for binding NBS DNA” value turned out to be 0.301. Turning to IPVS, the “one-hybrid fitness for binding NBS DNA” value was at most 0.2.

These data come from a collection of fitness landscapes (doi:10.1016/j.celrep.2020.107928).
